# In article PMC4336329 (PLoS ONE, 2015):
# Hit rate of the full screen: of about 310,000 compounds, about 14,000 (4.5%) showed an effect of 50% or more. The effect is printed as a negative number. Some of the results follow.
# Biological target: human ether-à-go-go-related gene (hERG) potassium channel (human, UniProt Q12809)
# Experiment: primary screen, population patch clamp on CHO cells stably expressing hERG
# 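Further: peak tail current of the secondary pulse compared with the same well before compound.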
# Chain of human ether-à-go-go-related gene (hERG) potassium channel (Q12809 whole entry, looked up): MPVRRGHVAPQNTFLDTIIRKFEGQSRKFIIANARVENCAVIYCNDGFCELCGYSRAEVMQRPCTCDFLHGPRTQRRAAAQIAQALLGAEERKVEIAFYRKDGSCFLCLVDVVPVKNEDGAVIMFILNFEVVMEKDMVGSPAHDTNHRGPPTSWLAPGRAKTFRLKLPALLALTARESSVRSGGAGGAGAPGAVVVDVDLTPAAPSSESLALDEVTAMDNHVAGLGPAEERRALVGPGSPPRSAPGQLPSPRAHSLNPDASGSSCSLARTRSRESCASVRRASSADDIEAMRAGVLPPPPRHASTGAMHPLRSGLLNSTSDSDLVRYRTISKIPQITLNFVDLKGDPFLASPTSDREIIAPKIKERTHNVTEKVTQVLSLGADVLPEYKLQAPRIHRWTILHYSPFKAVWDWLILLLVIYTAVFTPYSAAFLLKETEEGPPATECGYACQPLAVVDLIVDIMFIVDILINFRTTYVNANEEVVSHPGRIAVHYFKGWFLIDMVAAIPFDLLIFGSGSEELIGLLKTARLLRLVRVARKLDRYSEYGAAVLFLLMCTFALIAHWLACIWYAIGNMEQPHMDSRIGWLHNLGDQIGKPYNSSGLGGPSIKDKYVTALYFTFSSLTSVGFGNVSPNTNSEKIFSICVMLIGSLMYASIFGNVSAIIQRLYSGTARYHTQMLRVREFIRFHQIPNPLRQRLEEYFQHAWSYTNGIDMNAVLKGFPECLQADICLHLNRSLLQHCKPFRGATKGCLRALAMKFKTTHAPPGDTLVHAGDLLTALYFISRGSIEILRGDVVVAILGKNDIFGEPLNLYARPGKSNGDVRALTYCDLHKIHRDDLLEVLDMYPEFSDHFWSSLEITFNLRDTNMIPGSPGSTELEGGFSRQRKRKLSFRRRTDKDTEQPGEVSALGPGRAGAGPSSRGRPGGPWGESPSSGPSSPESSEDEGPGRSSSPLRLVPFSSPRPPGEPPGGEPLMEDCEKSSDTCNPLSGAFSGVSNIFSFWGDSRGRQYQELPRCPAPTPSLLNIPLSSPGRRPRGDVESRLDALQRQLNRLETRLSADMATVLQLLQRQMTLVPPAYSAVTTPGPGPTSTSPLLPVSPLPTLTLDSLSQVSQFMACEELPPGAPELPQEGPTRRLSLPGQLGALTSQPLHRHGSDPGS
row,SMILES,"hERG current change (%, negative = inhibition) at 10uM [%]"
1,CC(C)=CCc1c(C)nc2ccccc2c1C(=O)O,15.7
2,CCCn1c(SCC(=O)N2CCCCC2)nnc1C(C)C,21.5
3,CCN(CC)S(=O)(=O)c1cccc(NC(=O)/C=C/c2ccc([N+](=O)[O-])cc2)c1,-17.9
4,COc1ccc2nc(NCCO)[nH]c2c1,2.83
5,COc1cc(OC)cc(C(=O)NCCNC(=O)c2ccccn2)c1,14.3
6,CN(C)S(=O)(=O)c1ccc(C(=O)NCC(=O)N/N=C/c2ccccc2Cl)cc1,5.43
7,CC1CCC(NC(=O)CCNS(=O)(=O)c2ccc3c(c2)CCC(=O)N3)CC1 (stereo not drawn),12.6
8,Cl.O=C(O)C1=CCCN(CCON=C(c2ccccc2)c2ccccc2)C1,-8.21
9,Cc1cccc2cc(CN(Cc3ccc(F)cc3)C(=O)C(F)(F)F)c3nnnn3c12,28.5
10,CC(C)(C)c1cc[n+](-c2[nH]c(=O)sc2/C=N/NC(=O)c2ccccc2[O-])cc1,16.5
11,OC[C@H]1O[C@@H](Oc2ccc3cc(Br)ccc3c2)[C@H](O)[C@@H](O)[C@H]1O,4.76
12,O=C(CCCC(=O)c1ccccc1)Nc1ccc(F)cc1,11.6
13,CCCn1c(=O)c(C(=O)NNC(=O)c2ccc(Cl)cc2Cl)c(O)c2ccccc21,2.68
14,CC1(C)CC(=O)C2=C(C1)OC(N)=C([N+](=O)[O-])C2c1ccc(F)cc1 (stereo not drawn),-4.66
15,N#CC(C#N)=C/C(C#N)=C(/N)N1CCN(c2ccc(Cl)cc2)CC1,0.973
16,CC12CCC(=O)N1C(C(=O)NNC(=O)c1ccccc1)CS2 (stereo not drawn),0.931
17,CC(C)OC(=O)CC(=O)CSc1nc2c(cc1C#N)CCCCCC2,-4.33
18,CS(=O)(=O)N(CCc1ccccc1)CC(=O)N1CCN(Cc2ccccc2)CC1,-41.8
19,CCN(CC)c1ccc(NC(=O)C(C)C)cc1,3.24
20,Cc1ccc(Cn2c(C3CCCN3c3nc(-c4cc(Cl)c(N)c(Cl)c4)cs3)nc3cc(Cl)c(Cl)cc32)cc1 (stereo not drawn),16.3
21,CC(C)(C)C(=O)N(Cc1nc2ccccc2c(=O)[nH]1)Cc1cccs1,-2.93

row,SMILES,"hERG current change (%, negative = inhibition) at 10uM [%]"
1,COc1cccc2c(=O)c(C/C=C(/C)Cl)c(C)[nH]c12,3.6
2,O=C(c1cnn2c(C(F)(F)F)cc(-c3ccco3)nc12)N1CCCCCC1,-0.258
3,CCC(C(=O)NC1CCCC1)n1nc(C)n2c(cc3occc32)c1=O (stereo not drawn),-2.75
4,CC1(C)Cc2c(ccc3ccccc23)/C(=C/C(=O)N2CCCCC2)N1.Cl,0.952
5,CCOC(=O)C1(CCc2ccccc2)CCN(C(=O)c2cc(C)nc(C)n2)CC1,-11
6,O=C(O)c1ccc(OC2CSC2)cc1,22.7
7,CCOC(=O)N1CCN(c2nc(C)c3c(n2)CCCC3=O)CC1,7.97
8,Cn1c(=O)c2c(ncn2CC(=O)OCC(=O)Nc2sccc2C(N)=O)n(C)c1=O,-10.1
9,COc1ccc(OC)c(/C=N/n2c(-c3n[nH]c4c3CCC4)n[nH]c2=S)c1,15.9
10,Cc1nnc(SCc2cccc(Cl)c2)n(N)c1=O,-6.81
11,Cc1ccc(NC(=O)C2CCC(=O)N2)cc1C (stereo not drawn),7.96
12,O=C(CCNC(=O)c1ccc([N+](=O)[O-])cc1)NNC(=O)c1ccccc1F,1.48
13,O=C(CSc1nnc(Cn2nnc3ccccc32)o1)N(Cc1ccc(Cl)cc1)c1ccccc1,-6.61
14,Cc1ccc(OCCC(=O)OCC(=O)c2ccc3c(c2)NC(=O)CO3)cc1,-5.09
15,O=C(CN(C(=O)CCC(=O)Nc1ccccn1)c1ccc(F)cc1)NCc1ccco1,14.2
16,Cc1ccc(N2C(=O)C3N=NN(CC(=O)N4N=C(c5ccccc5)CC4c4ccccc4)C3C2=O)cc1 (stereo not drawn),-5.33
17,O=C(Nc1ccc(Oc2ccc(Br)cc2)cc1)C1=CC=CN2CCS(=O)(=O)N=C12,-0.78
18,O=C(Nc1nnc(-c2ccccc2)o1)c1nc2ccccc2s1,12.9
19,Cn1c(CC(=O)Nc2ccc(F)cc2)nnc1SCC(=O)NC1CCCCC1,23.9
20,COc1ccc(N2C(=O)C(F)(F)C2c2ccc(C)cc2)cc1OC (stereo not drawn),22.2
21,O=C(CN1CCCc2ccccc21)NC(=O)NCc1ccco1,7.7

row,SMILES,"hERG current change (%, negative = inhibition) at 10uM [%]"
1,CCCCCCCCCCS(=O)(=O)N/N=C/c1ccc([N+](=O)[O-])cc1,3.69
2,CCC(C)c1ccc(-n2c(=O)c3ccccc3n3c(=S)[nH]nc23)cc1 (stereo not drawn),23.2
3,CCC(=O)N1CCc2cc(OC)c(OC)cc2C1COc1ccc(C(=O)OC)cc1 (stereo not drawn),-1.37
4,Cc1nc(N2CCOCC2)c2c(C)c(C(=O)Nc3ccc(C(F)(F)F)cc3)sc2n1,-34.9
5,CCN(CC)C(=O)c1sc(NC(=O)c2cccc([N+](=O)[O-])c2)c(C#N)c1C,2.99
6,O=C(COc1ccccc1Cl)N1CCc2ccccc2C1,7.04
7,Cc1cc(/C=N/NC(=O)c2ccc(CN3CCOCC3)cc2)c(C)n1-c1ccccc1,-25.7
8,Fc1ccc(N2CCN(C(c3cccs3)c3nnnn3C3CCCC3)CC2)cc1 (stereo not drawn),-34.1
9,O=C(CSc1cc(Cl)ccc1Cl)NCCCn1ccnc1,5.87
10,COC(=O)COc1ccc(Oc2cc(C)nc(SC)n2)nn1,5.27
11,CCCCNC(=O)/C(C#N)=c1\s/c(=C\c2ccccc2OC(F)F)c(=O)n1CCCOC,22.6
12,COc1cccc(NC(=O)CN(C)C(=O)CSc2ccc3c(c2)OCCO3)c1,-9.86
13,Cc1cc(F)ccc1NC(=O)c1ccc(NS(=O)(=O)c2cc(C(C)(C)C)ccc2C)cc1,0.887
14,Cc1csc(Nc2ccccc2)[n+]1-c1ccccc1.[Br-],22.5
15,C[n+]1cnn2c1SCC1(COC1)C2.[I-],11.8
16,CN(C)c1ccc(C(=O)N=c2sccn2C)cc1[N+](=O)[O-],12.6
17,COCCCNc1nc2c([nH]1)c(=O)[nH]c(=O)n2C,2.89
18,O=C1C=C(c2ccc(Cl)nc2)C[C@@H](c2ccc3c(c2)OCO3)C1,-20.2
19,C[C@H](NC(=O)c1nc[nH]c1C(=O)N1CCN(c2ccccc2)CC1)c1ccccc1,-7.45
20,CC(=O)C12CCCCC1CC1C3CC(C)C4(O)CC(=O)CCC4(C)C3CCC12C (stereo not drawn),21.8
21,O=C(CCSc1ccccc1)Nc1ccc(OCc2ccccc2)cc1,5.88

row,SMILES,"hERG current change (%, negative = inhibition) at 10uM [%]"
1,COc1ccc(COC(=O)C2=C(C)NC(=O)NC2c2ccc(O)c(OC)c2)cc1 (stereo not drawn),-3.97
2,O=C(CSc1nc2ccccc2[nH]1)NC1CCCc2ccccc21 (stereo not drawn),-0.805
3,COc1ccc(CCNC(=O)CN2c3cccc4cccc(c34)S2(=O)=O)cc1OC,4.56
4,CCOc1ccc(Nc2nc(Cc3nnc(SCC(=O)c4ccc(C)c(C)c4)o3)cs2)cc1,0.743
5,CCN1CCC(NC(=O)c2cc(OC)c(OC)cc2OC)CC1,-8.92
6,Cc1cc(C)cc(NC(=O)COc2coc(CN3CCc4ccccc43)cc2=O)c1,2.85
7,CCN(CC)c1ccc(N=Nc2nn(C)c(C)c2[N+](=O)[O-])cc1,-1.25
8,NC(=O)[C@@H]1[C@@H]2C(=O)N(c3ccc(F)cc3)C(=O)[C@@H]2[C@H]2C=Cc3ccccc3N21,14.2
9,COc1ccccc1-c1noc(-c2cccs2)n1,1.86
10,COc1cccc(CN(C)CC(=O)NC(=O)NCc2ccccc2)c1,5.74
11,C#CCOCCOCCOCCNc1nc(N2CCN(C(=O)C([C@@H](C)CC)n3cc(C(N)Cc4ccc(O)cc4)nn3)CC2)nc(N2CCN(C(=O)[C@H](CCC(=O)O)n3cc(C(N)CC(C)C)nn3)CC2)n1.Cl (stereo partly drawn),3.43
12,Clc1ccc(N2N=C(c3cccs3)CC2c2ccco2)cc1 (stereo not drawn),0.684
13,c1ccc2[nH]c(-c3ccnc4ccccc34)nc2c1,1.25
14,O=C(CSc1nnc(Cc2ccccc2)o1)N1CCc2ccccc21,7.54
15,COC(=O)c1ccccc1N1C(=O)C2C(C1=O)[C@H]1C=C[C@@H]2C1 (stereo partly drawn),-2.08
16,COCCNC(=O)CCC1CCN(Cc2ccc(-c3ccccc3)cc2)CC1,-63.6
17,Cc1ccc(N2CC(C(=O)OCC(=O)Nc3cc(C)on3)CC2=O)c(C)c1 (stereo not drawn),14.9
18,COc1ccc(CCC(=O)Nc2ccc(OC)c(S(=O)(=O)N3CCCCC3)c2)cc1OC,-19.2
19,C=COC(=O)c1sc2nc(C)cc(C)c2c1N,20.2
20,CC(=O)N1CCc2cc(S(=O)(=O)C(C)CC(=O)Nc3ccc(OC(F)(F)F)cc3)ccc21 (stereo not drawn),-16.6
21,Cc1ccc(C(=O)N[C@H](C(=O)OCc2cc(=O)oc3cc(C)ccc23)C(C)C)cc1,-2.78
